Measured values: PubChem BioAssay AID1345082 (National Center for Advancing Translational Sciences (NCATS), 2018)
About 4,000 (4.3%) of roughly 94,000 compounds were called active. Inconclusive means that the source gave no clear call. Such entries were picked first, then a sample of the others. Calls follow the shape of the dose curve; as a rule, active = well fitted inhibition curve with a large enough effect; inconclusive = small, poorly fitted or top-dose-only effect; inactive = no such curve, though single readings can be large or run the other way. Potencies of inconclusive entries are doubtful fits and often do not repeat.

Experiment: Cytotoxic Profiling in NIH 3T3 Cell Line of Diverse Libraries Using Quantitative High-Throughput Screening; also: nearly all actives have a fitted effect of over 55% in size
Conditions: NIH 3T3 viability, CellTiter-Glo ATP luminescence, 48-72 h; activity change, negative = cytotoxicity: at 96.7 µM (top of the series) unless noted; series mostly up to 96.7 µM
How it was run: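 Luminescent ATP readout (CellTiter-Glo, 10 min RT) after 48 or 72 hr compound exposure of NIH 3T3 cells seeded at 400 cells/well in 1536-well format; quantitative HTS.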
% is scaled to controls: 0 for no effect and ±100 for the full control effect; potency is read from the fitted curve at half-maximal effect; tags tell the direction and shape of the fitted curve.

Row | Compound | activity change, negative = cytotoxicity | Potency
1 | NC(=O)c1cccc(CN2CCC3(C2)CN(C(=O)C2CCCC2)c2ccccc2CO3)c1 (centres undefined) | inactive: -22.3% | 
2 | CCOc1ccccc1C(=O)N1CCN(c2cc(-c3ccc(OC)cc3)[nH]n2)CC1 |  | inconclusive: 44.7 µM [inhibitor, partial curve, poor fit]
3 | Cc1ccc(C2=NC3(CCN(C(=O)Cc4ccccc4C)CC3)ON2)cc1 |  | inconclusive: 56.2 µM [inhibitor, partial curve, poor fit]
4 | COc1ccc(C2Cn3nnc(-c4nc(-c5ccccc5C)no4)c3CO2)cc1 (centres undefined) |  | inconclusive: 44.7 µM [inhibitor, partial curve, poor fit]
5 | NCCO[C@H]1C[C@@H](O)C12CCN(Cc1c(Cl)cccc1Cl)CC2 |  | inconclusive: 89.1 µM [inhibitor, single point]
6 | CC(C)c1nc2nccc(-c3ccc4c(c3)OCCCO4)n2n1 |  | inconclusive: 44.7 µM [inhibitor, partial curve, poor fit]
7 | COC(=O)CNC(=O)C1=NOC2CN(C(=O)C3CC3)CC12 (centres undefined) | inactive: 4.88% | 
8 | O=C1NCc2ccccc2CC12CCCCN2Cc1cccc(F)c1F (centres undefined) |  | inconclusive: 50.1 µM [inhibitor, partial curve, poor fit]
9 | COc1ccc(Cn2c(=O)c(C(=O)N3CCN(C(=O)C(C)(C)C)CC3)nc3cccnc32)cc1 | inactive: -32.9% | 
10 | O=C(CCc1nnn2c1CN(C(=O)c1nccc3ccccc13)CC2)N1CCCC1 | inactive: -21.4% | 
11 | Fc1ccc(CN2CCOC[C@H]2c2ncc(-c3cccnc3)[nH]2)cc1 | inactive: -7.62% [at 174 µM] | 
12 | Cc1ccc(-n2c(C3CCN(C(=O)c4ccccc4C(F)(F)F)CC3)n[nH]c2=O)cc1 |  | inconclusive: 12.6 µM [inhibitor, full curve]
13 | CCc1nnc(NC(=O)C2c3ccccc3C(=O)N(CCOC)C23CCCCC3)s1 (centres undefined) | inactive: -5.8% | 
14 | c1ccc(-c2cc(CC3(NCC4CCCCC4)COC3)no2)cc1 |  | inconclusive: 50.1 µM [inhibitor, partial curve]
15 | COc1ccccc1CNC(=O)CNC(=O)c1cccc(-c2ccc(C(F)(F)F)cc2)c1 |  | inconclusive: 25.1 µM [inhibitor, full curve]
16 | CCN1C(=O)Cc2ccccc2C1C(=O)NCc1cccc(F)c1 (centres undefined) | inactive: -32% | 
17 | C=CCO[C@@H]1CCN2C(=O)c3cc(-c4ccccc4F)ccc3NC(=O)[C@H]12 |  | inconclusive: 39.8 µM [inhibitor, partial curve, poor fit]
18 | COc1cc(NC(=O)CC2CCCN(c3cn[nH]c(=O)c3)C2)cc(OC)c1 (centres undefined) | inactive: -20.2% | 
19 | COc1ccccc1-c1ccc(CN2CCCCC2C(=O)NCc2ccccc2Cl)cc1 (centres undefined) |  | active: 28.2 µM
